Laboratory results reported in the supplement of paper PMC4166925.
± gives the standard deviation of the averaged measurements. In all, about 33,000 sequences were measured (“E-score (dimensionless, -0.5 to 0.5)”: median about -0.049, highest 2% from about 0.37 on). Some of the results follow.

What follows are sequences tested on T1, PmTbr T-box DNA-binding domain (GST fusion) (assay: PBM E-score of 8-mer (E-score (dimensionless, -0.5 to 0.5)); Tbr is Tbrain of the sea star Patiria miniata (Pm) or the sea urchin Strongylocentrotus purpuratus (Sp); higher = stronger binding preference; most listed sequences are background and not binding sites). Conditions: the construct has about 5 more residues each side.
T1 sequence: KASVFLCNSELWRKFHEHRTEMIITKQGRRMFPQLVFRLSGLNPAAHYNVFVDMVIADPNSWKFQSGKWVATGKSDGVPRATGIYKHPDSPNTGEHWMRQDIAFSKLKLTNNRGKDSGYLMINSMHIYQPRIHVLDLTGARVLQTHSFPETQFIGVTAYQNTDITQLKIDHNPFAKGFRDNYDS
Method in brief: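 Each ungapped 8-mer received an enrichment E-score from the Universal PBM Analysis Suite, averaged over duplicate arrays. The proteins were Tbr T-box DNA-binding domains, covering the whole T-box plus about five flanking residues, fused to GST and expressed in BL21 E. coli at 20 °C before glutathione affinity purification. Universal Agilent oligonucleotide arrays were made double-stranded by primer extension and incubated with 200 nM protein in PBS (pH 7.5). The arrays were then scanned and quantified, and every 8-mer was scored from probe intensities.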

Sequence	PBM E-score of 8-mer
TAGACCGA	-0.208 ± 0.12
CCTCATTC	0.113 ± 0.0052
CTATAAAA	-0.13 ± 0.019
ATCGTATG	0.14 ± 0.033
CCTTCCCA	-0.209 ± 0.0085
AGTGGGAT	-0.0452 ± 0.049
AAGACCCA	-0.102 ± 0.043
AAATAACA	0.0689 ± 0.096
GCACACGC	0.074 ± 0.0021
CTAATACA	-0.025 ± 0.027
TAATCTAA	-0.195 ± 0.051
GATACGGC	-0.26 ± 0.04
CCAGAAGC	-0.05022 ± 0.0004
ATAGCCCC	-0.0885 ± 0.02
GCCAAGCA	-0.0191 ± 0.018
CAGATCAA	-0.142 ± 0.082
CCATCAAA	-0.251 ± 0.023
GTATCATA	-0.11 ± 0.025
AAGCCTTC	-0.134 ± 0.025
CTGGACTC	-0.211 ± 0.064
ACGTCAGA	0.216 ± 0.034
CGGTGAAG	-0.0517 ± 0.041
CCATCTCA	0.00782 ± 0.0042
CAAGTCGC	0.255 ± 0.025
ACGAGCAC	-0.214 ± 0.049

Sequence	PBM E-score of 8-mer
ACCTTCAA	-0.061 ± 0.055
AGAAATTG	-0.00433 ± 0.049
CCATCGCA	0.0546 ± 0.056
GGCCTATA	-0.309 ± 0.022
CTACTCTC	-0.145 ± 0.014
ATACGCTC	-0.274 ± 0.025
AATTTTAG	0.0676 ± 0.077
AGTGCGGC	0.131 ± 0.023
CGTTGGTC	-0.0238 ± 0.016
CCTTTCGC	0.294 ± 0.004
ACTCCTAT	-0.108 ± 0.057
CACCGTAG	0.085 ± 0.031
CGCCCGCG	0.0694 ± 0.093
CGGGTACA	0.0659 ± 0.028
CGTTGGTA	-0.0221 ± 0.009
CACATGTA	0.0564 ± 0.0057
CCCAGTTA	-0.118 ± 0.0092
ACCGCCCG	0.0764 ± 0.061
CTGTATTA	-0.151 ± 0.032
AGTCTCAT	-0.0455 ± 0.027
AAGTCGGG	-0.0479 ± 0.11
GACTTTGA	-0.173 ± 0.038
CCCAGTGA	-0.125 ± 0.033
ATAATATC	-0.0229 ± 0.0089
CTAGGGAA	-0.181 ± 0.0033

Sequence	PBM E-score of 8-mer
CTATTGGA	-0.164 ± 0.013
CTCGACAC	0.387 ± 0.029
ACATGCAC	0.0987 ± 0.024
CCGTAGGC	-0.193 ± 0.055
GACAGCCC	-0.00908 ± 0.0068
GTCACCGA	0.127 ± 0.041
GGATAGTA	-0.0109 ± 0.031
CTGATTAC	-0.168 ± 0.037
TATTAGCA	0.17 ± 0.06
CCCCATCG	-0.304 ± 0.061
CGGACATA	-0.11 ± 0.087
ATACGGCC	-0.391 ± 0.012
GGTCGATA	0.0375 ± 0.069
CGACTCCA	-0.0615 ± 0.08
GAGATGAC	0.0523 ± 0.043
GCCAAATA	0.0324 ± 0.0096
GTGGTGCA	0.0543 ± 0.079
GCCGATCC	-0.178 ± 0.01
AACCAGAC	-0.263 ± 0.1
CCATCTGC	0.011 ± 0.019
AGTGCAAC	0.238 ± 0.0035
GTGCTCGA	-0.104 ± 0.0041
GTGTGGTA	0.183 ± 0.028
AAACGCAA	-0.101 ± 0.045
GAGCATCC	-0.164 ± 0.042

Sequence	PBM E-score of 8-mer
CGCAATAC	0.0143 ± 0.042
CCGTCCAG	-0.169 ± 0.041
CCGCGTAG	-0.125 ± 0.067
TAACGCAA	0.13 ± 0.051
GTGCCATA	0.312 ± 0.038
GATGATGC	0.0614 ± 0.021
GCTAAGCC	-0.15 ± 0.082
GGATACTA	-0.177 ± 0.009
ACACAGGC	0.0712 ± 0.046
GAACGTTA	-0.1664 ± 0.0012
AAGAGTGG	0.0969 ± 0.083
GGAACCAA	-0.15 ± 0.051
GATCCCCC	-0.194 ± 0.037
GGTCTAGA	-0.0924 ± 0.012
CATTACGG	0.00889 ± 0.07
GCGCATAC	-0.0655 ± 0.018
CACGGTAA	-0.0651 ± 0.02
CTCCTCAA	-0.204 ± 0.024
CGCTAGCC	0.0208 ± 0.035
GTTCCCAA	-0.171 ± 0.054
CCGATATA	-0.22 ± 0.089
CTCCCCAA	-0.12 ± 0.0034
AATTATTA	0.0781 ± 0.037
ATCTAAAG	-0.0721 ± 0.13
CCGTTCAG	-0.125 ± 0.0045

Sequence	PBM E-score of 8-mer
AGTTGCCG	0.198 ± 0.034
CTTAGGCC	-0.236 ± 0.042
ACGTCTAA	-0.0591 ± 0.058
CCTTTTCG	-0.0844 ± 0.11
CGCAACAC	0.356 ± 0.033
GCGCAACC	0.0116 ± 0.096
GGCCAGAA	-0.0717 ± 0.046
CAGACGAA	-0.175 ± 0.063
CGCTTCGA	0.0101 ± 0.081
CGAGCAAA	-0.0522 ± 0.042
AAACCGCG	0.118 ± 0.05
CCGAGATA	0.0154 ± 0.0047
ACTACTTA	-0.00428 ± 0.033
TCCCGGGA	-0.0648 ± 0.018
ACAACAAA	0.126 ± 0.034
CCTCGGCA	0.142 ± 0.033
CTCTGGAA	0.0136 ± 0.06
AAGCACCG	-0.0942 ± 0.069
CACTGGAC	0.000895 ± 0.02
GCGCCTGA	0.0755 ± 0.0086
ATAGGGAT	-0.166 ± 0.038
GTCACAAC	0.319 ± 0.0069
GCGAGGAC	0.0922 ± 0.051
CGACGGAA	-0.107 ± 0.056
CTTGCTTC	-0.315 ± 0.0093

Sequence	PBM E-score of 8-mer
AGTTCATA	-0.23 ± 0.0044
AGAAATCA	-0.0217 ± 0.029
CCCCTAGA	-0.178 ± 0.0024
CCACACAC	0.304 ± 0.011
CTCCGGAC	-0.203 ± 0.042
AACGCGCG	0.2454 ± 0.0014
ATGGAAAT	-0.169 ± 0.037
GGCAGCGA	0.126 ± 0.0052
GGGATACA	-0.16 ± 0.018
ACCGAGGC	-0.0231 ± 0.018
GACGGTCA	0.0599 ± 0.04
GGTCTCGA	-0.177 ± 0.055
CTACGCAA	-0.194 ± 0.097
CCTAGCAG	-0.0314 ± 0.049
GTTGGTTA	0.0594 ± 0.025
AGTCTTAT	-0.204 ± 0.01
AGTTTACG	-0.0581 ± 0.0058
CACCTGGG	0.361 ± 0.029
AGTGATGG	0.202 ± 0.025
AGCCACGA	0.0169 ± 0.03
CCATCGAC	-0.0162 ± 0.054
ATGGTAAC	-0.0792 ± 0.013
TAGAAAAA	-0.103 ± 0.027
AACTATGA	-0.109 ± 0.012
GAACGTCC	-0.211 ± 0.13

Sequence	PBM E-score of 8-mer
AGGCCATA	-0.117 ± 0.039
ACTTAGTG	0.000245 ± 0.034
AGGATAAC	0.0317 ± 0.0068
ATCGATAC	-0.00677 ± 0.013
GCCACGTA	-0.033 ± 0.11
CCCGCAGC	-0.0306 ± 0.016
GGGAAATA	-0.189 ± 0.036
CTATCTGC	-0.0595 ± 0.065
GGCAGTTA	0.0342 ± 0.0068
CAACGGCA	-0.0419 ± 0.033
GATCGCAA	0.244 ± 0.013
CGCGGTCC	0.00125 ± 0.00074
CATGCTTC	-0.194 ± 0.045
AAATGAAC	-0.22 ± 0.033
GACAGATA	0.164 ± 0.043
GTCATTAA	-0.0808 ± 0.13
CAGCTACG	-0.0325 ± 0.0091
CACGCTGA	0.017 ± 0.027
CAGCGCAG	-0.158 ± 0.035
CAAGACCC	-0.0367 ± 0.0093
AAGACTCG	0.0824 ± 0.011
CCGCGGCG	-0.0137 ± 0.033
